According to PubChem BioAssay AID1030 (National Center for Advancing Translational Sciences (NCATS), 2008):
“And” between values parts separate entries of the source, which are not always exact repeats. Equal entries are not always repeated. In all, about 220,000 compounds went through this assay and about 16,000 (7.3%) were called active. Inconclusive results, whose numbers are uncertain, are shown with a selection of clear calls. Calls come from the whole dose curve; as a rule, active = well fitted inhibition curve with a large enough effect (not every such curve was filed as active); inconclusive = small, poorly fitted or top-dose-only effect, or another doubt; inactive = no such curve, though single readings can be large or run the other way. A potency beside an inconclusive call is a rough fit, not a confirmed value.

Each compound was assayed against Aldehyde dehydrogenase 1A1 (Homo sapiens) (UniProt P00352) (assay: qHTS Assay for Inhibitors of Aldehyde Dehydrogenase 1 (ALDH1A1)). Conditions: Purified ALDH1A1, NADH fluorescence, propionaldehyde substrate; series mostly up to 75.3 µM; activity, negative = inhibition: at the top concentration.
UniProt P00352, sequence (P00352 whole entry, looked up): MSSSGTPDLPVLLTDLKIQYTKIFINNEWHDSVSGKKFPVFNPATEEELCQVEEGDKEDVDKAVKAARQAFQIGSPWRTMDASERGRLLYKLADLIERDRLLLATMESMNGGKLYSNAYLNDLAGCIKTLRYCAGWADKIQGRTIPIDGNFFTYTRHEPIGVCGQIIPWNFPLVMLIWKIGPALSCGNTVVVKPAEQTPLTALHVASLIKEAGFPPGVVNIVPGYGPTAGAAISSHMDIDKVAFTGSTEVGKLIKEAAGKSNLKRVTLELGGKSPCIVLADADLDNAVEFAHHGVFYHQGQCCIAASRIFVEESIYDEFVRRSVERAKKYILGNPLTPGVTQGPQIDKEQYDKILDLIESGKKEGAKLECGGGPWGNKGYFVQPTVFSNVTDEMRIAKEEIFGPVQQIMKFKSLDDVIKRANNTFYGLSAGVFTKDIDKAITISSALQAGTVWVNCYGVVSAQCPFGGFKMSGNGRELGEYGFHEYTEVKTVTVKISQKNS
Potency is the fitted concentration of half-maximal effect; tags give direction and shape of the fitted curve.
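Throughout, for activity, negative = inhibition: plate controls were no enzyme wells and a reference inhibitor.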

**Q.** How did the Potency turn out when `C=CCNc1nnc(SC2CC(=O)N(c3ccc(OCCC)cc3)C2=O)s1` (stereo not drawn) was run?
**A.** active: 0.562 µM

**Q.** How did the Potency turn out when `O=c1c(-c2ccc(F)cc2)nc2cnc(N3CCOCC3)nc2n1CCc1ccccc1` was run?
**A.** inconclusive: 31.6 µM [inhibitor, partial curve]

**Q.** `COc1ccc(-c2cc(-c3nnc(COC(=O)C4CC4C)o3)c3ccccc3n2)cc1OC` (stereo not drawn) was tested. Which Potency did it give?
**A.** inconclusive: 39.8 µM [inhibitor, single point]

**Q.** With `N=c1c2c(-c3ccccc3)c(-c3ccccc3)n(Cc3ccco3)c2ncn1CCCn1ccnc1` as the compound, how does the “activity, negative = inhibition” value read?
**A.** inactive: 3.82%

**Q.** How did the “activity, negative = inhibition” value turn out when `Cc1cccc(-c2noc(-c3ccc(Cl)cc3[N+](=O)[O-])n2)c1` was run?
**A.** inactive: -0.649%

**Q.** How did the Potency turn out when `CC(C)C(=O)N1N=C(c2ccc(NS(C)(=O)=O)cc2)CC1c1cccs1` (stereo not drawn) was run?
**A.** inconclusive: 25.1 µM [inhibitor, partial curve]

**Q.** For `COc1ccc(OC)c(-n2c(=S)[nH]c3cc(C(=O)N(C)Cc4ccccc4)ccc3c2=O)c1`, which Potency is on record?
**A.** inconclusive: 39.8 µM [inhibitor, partial curve, poor fit]

**Q.** Which Potency does the source give for `Oc1ccccc1C1=Nc2nc3ccccc3n2C(c2ccccc2)C1` (stereo not drawn) here?
**A.** inconclusive: 37.7 µM [inhibitor, single point]

**Q.** How did the “activity, negative = inhibition” value turn out when `O=c1[nH]c2cc(NCCO)c([N+](=O)[O-])cc2[nH]1` was run?
**A.** inactive: -2.27%

**Q.** `N#Cc1nc(-c2cccc3ccccc23)oc1NCCN1CCOCC1` was tested. Which Potency did it give?
**A.** inconclusive: 25.1 µM [inhibitor, partial curve]

**Q.** For `O=C(NC(NC(=S)Nc1c(Cl)cc(Cl)cc1Cl)C(Cl)(Cl)Cl)OCc1ccccc1` (stereo not drawn), which Potency is on record?
**A.** active: 3.55 µM

**Q.** With `O=C(NCCc1ccncc1)c1ccccc1F` as the compound, how does the Potency read?
**A.** inconclusive: 25.1 µM [inhibitor, single point]

**Q.** How did the “activity, negative = inhibition” value turn out when `Cc1nnc(NC(=O)c2ccc3c(c2)OCO3)s1` was run?
**A.** inactive: -21.9%

**Q.** For `Oc1cc2c(c(Cl)c1O)CCNC[C@H]2c1ccccc1`, which “activity, negative = inhibition” value is on record?
**A.** inactive: 5.21%

**Q.** How did the “activity, negative = inhibition” value turn out when `CC(NC(=S)Nc1ccc(OC(F)F)cc1)c1ccc(F)cc1` (stereo not drawn) was run?
**A.** inactive: -6.11%

**Q.** Which “activity, negative = inhibition” value does the source give for `Cc1csc(NS(=O)(=O)c2cccc([N+](=O)[O-])c2)n1` here?
**A.** inactive: 2.34%

**Q.** How did the “activity, negative = inhibition” value turn out when `CC1(C)CC2CC(C)(CN2C(=O)COc2cccc3ccccc23)C1` (stereo not drawn) was run?
**A.** inactive: 4.26%

**Q.** With `CC(=O)Nc1ccc(NC(=O)C(C)O/N=C/c2cccc([N+](=O)[O-])c2)cc1` (stereo not drawn) as the compound, how does the Potency read?
**A.** inconclusive: 22.4 µM [inhibitor, single point]

**Q.** Which Potency does the source give for `Cc1occc1-c1nnc(SCC(=O)N2CCCc3ccccc32)n1Cc1ccco1` here?
**A.** inconclusive: 39.8 µM [inhibitor, single point]

**Q.** With `Cc1cc(C)cc(NC(=O)CSc2nnc(-c3ccccc3)n2N)c1` as the compound, how does the “activity, negative = inhibition” value read?
**A.** inactive: -4.79%

**Q.** Which Potency does the source give for `CCOc1ccc(S(=O)(=O)N(CC(N)=O)c2ccc(C)cc2)cc1` here?
**A.** inconclusive: 39.8 µM [inhibitor, single point]

**Q.** Which Potency does the source give for `Oc1ccc(Cl)cc1C1=NNC(c2ccc(Cl)cc2)C1` (stereo not drawn) here?
**A.** inconclusive: 20 µM [inhibitor, partial curve]

**Q.** With `Cc1ccc(-c2nc(SCC(=O)N(C)C3CCS(=O)(=O)C3)[nH]c2-c2ccc(C)cc2)cc1` (stereo not drawn) as the compound, how does the Potency read?
**A.** inconclusive: 39.8 µM [inhibitor, single point]

**Q.** For `CCOC(=O)c1ccc(-n2c(C)nc3c(cnn3-c3ccc(Cl)cc3)c2=O)cc1`, which “activity, negative = inhibition” value is on record?
**A.** inactive: -0.632%

**Q.** For `Cc1nnc(SCc2ccc3c(c2)OCO3)s1`, which Potency is on record?
**A.** inconclusive: 44.7 µM [inhibitor, single point]

**Q.** How did the “activity, negative = inhibition” value turn out when `C=CCOc1ccc(/C=C/C(C)=N\O)cc1` was run?
**A.** inactive: -4.61%

**Q.** With `COc1ccc(/C=C/c2cc(-c3ccc(C)cc3)o[n+]2C)cc1` as the compound, how does the Potency read?
**A.** inconclusive: 39.8 µM [inhibitor, single point]

**Q.** `O=c1c2c3c(sc2n(CCN2CCCCC2)c(=O)n1Cc1ccco1)CCCCC3` was tested. Which Potency did it give?
**A.** active: 5.62 µM

**Q.** For `O=C(Nc1ccc(C(=O)Nc2ccc(C(=O)Nc3ccc(S(=O)(=O)O)c4cc(S(=O)(=O)O)cc(S(=O)(=O)O)c34)cc2)cc1)Nc1ccc(C(=O)Nc2ccc(C(=O)Nc3ccc(S(=O)(=O)O)c4cc(S(=O)(=O)O)cc(S(=O)(=O)O)c34)cc2)cc1`, which Potency is on record?
**A.** inactive and inconclusive: 37.7 µM [inhibitor, single point]

**Q.** Which “activity, negative = inhibition” value does the source give for `O=C(CCCC(=O)N(CC(=O)NC1CCCCC1)Cc1ccco1)Nc1ccccn1` here?
**A.** inactive: -2.27%

**Q.** Which Potency does the source give for `CCOc1ccc(N2C(=O)CC(N3CCOCC3)C2=O)cc1` (stereo not drawn) here?
**A.** inconclusive: 39.8 µM [inhibitor, single point]

**Q.** How did the Potency turn out when `CCOC(=O)/C(C#N)=C/c1c(N2CCN(Cc3ccc4c(c3)OCO4)CC2)nc2c(C)cccn2c1=O` was run?
**A.** active: 0.708 µM

**Q.** For `COc1c(O)c2c(=O)cc(OC)c3c4c(OC)cc(=O)c5c(O)c(OC)c(C[C@@H](C)OC(=O)c6ccccc6)c(c(c1C[C@@H](C)OC(=O)Oc1ccc(O)cc1)c23)c54`, which “activity, negative = inhibition” value is on record?
**A.** inactive: -8.44%

**Q.** With `Cc1cccc(NC(=O)c2ccc(-n3cccn3)c([N+](=O)[O-])c2)c1` as the compound, how does the Potency read?
**A.** inconclusive: 39.8 µM [inhibitor, single point]

**Q.** Which Potency does the source give for `c1ccc(Cc2nnc3sc(-c4cccs4)nn23)cc1` here?
**A.** active: 2.82 µM

**Q.** With `N#Cc1nc(-c2ccc(OCc3ccccc3)cc2)oc1N1CCC(C(N)=O)CC1` as the compound, how does the Potency read?
**A.** inconclusive: 25.1 µM [inhibitor, partial curve]

**Q.** `Clc1ccc(-c2cc3ccccc3nc2N2CCCC2)cc1` was tested. Which Potency did it give?
**A.** inconclusive: 39.8 µM [inhibitor, single point]

**Q.** Which Potency does the source give for `Cc1cc([N+](=O)[O-])ccc1NC(=O)CN1C2CCC1CC(NC(=O)NC13CC4CC(CC(C4)C1)C3)C2` (stereo not drawn) here?
**A.** inconclusive: 15.8 µM [inhibitor, partial curve]

**Q.** With `CC(=O)Nc1ccc(S(=O)(=O)NNC(=O)COc2cccc(C)c2)cc1` as the compound, how does the Potency read?
**A.** inconclusive: 39.8 µM [inhibitor, single point]

**Q.** `CCCn1c(=O)[nH]c(=O)c2c1nc(-c1ccc(OC)c(Br)c1)n2CCOC` was tested. Which Potency did it give?
**A.** inconclusive: 39.8 µM [inhibitor, single point]

**Q.** For `CCOC(=O)c1sc2ncnc(NCC(c3cccs3)N(C)C)c2c1C` (stereo not drawn), which Potency is on record?
**A.** inconclusive: 15.8 µM [inhibitor, partial curve]

**Q.** How did the “activity, negative = inhibition” value turn out when `CC(=O)CCC(=O)N1CCCC(CNC(=O)c2ccc(-c3ccccc3)cc2)C1` (stereo not drawn) was run?
**A.** inactive: -1.51%

**Q.** Which Potency does the source give for `O=C(NCc1ccco1)c1ccccc1NS(=O)(=O)c1ccc(Cl)s1` here?
**A.** inconclusive: 37.7 µM [inhibitor, single point]
